From the supplement of paper PMC4604168 (melanoma cell lines)
Some of the results follow. Most values come without repeats; read them as rough.

What follows are molecules tested on A2058 (assay: cell count relative to DMSO control; melanoma cells; higher = more viable cells). Settings: library dose: low library concentration; 72 h.
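Further: cell number obtained by counting DAPI-stained nuclei in high-throughput microscope images with image analysis software, screen run in 1,536-well plates.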

Compound | cell count
C#Cc1cccc(Nc2ncnc3cc(OCCOC)c(OCCOC)cc23)c1 [erlotinib] + COc1ccc2c(c1)CCC1C2CCC2(C)C(NCCCCCCN3C(=O)C=CC3=O)CCC12 [U73122] (first compound 0.8 µM, partner dose 0.4 µM) | 95.5%
COCC[n+]1c2c(n(Cc3cnccn3)c1C)C(=O)c1ccccc1C2=O + O=C(O)C(=O)Nc1sc2c(c1C(=O)O)CCNC2 [TCS401] (first compound 0.0004 µM, partner dose 1.66667 µM) | 65.5%
O=C(CCCCCCC(=O)Nc1ccccc1)NO [vorinostat] + O=S(=O)(c1ccccc1)N(CC(F)(F)F)c1ccc(C(O)(C(F)(F)F)C(F)(F)F)cc1 [T0901317] (first compound 0.08 µM, partner dose 1.4 µM) | 116%
COCC[n+]1c2c(n(Cc3cnccn3)c1C)C(=O)c1ccccc1C2=O + O=C(Nc1ccccc1)c1cc([N+](=O)[O-])ccc1Cl [GW9662] (first compound 0.0004 µM, partner dose 2 µM) | 69.5%

Each molecule was assayed on A375 in the same assay as above. Settings: library dose: low library concentration; 72 h.

Compound | cell count
O=C(CCCCCCC(=O)Nc1ccccc1)NO [vorinostat] + CC(C)CCN1c2nc(Nc3cc(F)c(O)c(F)c3)ncc2N(C)C(=O)C1C [BID1870] (first compound 0.08 µM, partner dose 0.2 µM) | 88.2%
Cn1c(Nc2ccc(C(F)(F)F)cc2)nc2cc(Oc3ccnc(-c4ncc(C(F)(F)F)[nH]4)c3)ccc21 + Cn1cc(/C=C2\C(=O)Nc3cccnc32)c2ccccc21 [GW441756] (first compound 0.08 µM, partner dose 0.4 µM) | 60.2%
Nc1cccc2c1CN(C1CCC(=O)NC1=O)C2=O (centres undefined) [lenalidomide] + O=c1cc(-c2cccc3c2Sc2ccccc2S3)oc(N2CCOCC2)c1 [KU55933] (first compound 1 µM, partner dose 1 µM) | 94.2%
O=C(CCCCCCC(=O)Nc1ccccc1)NO [vorinostat] + COc1cc2ncnc(Nc3ccc(Oc4ccccc4)cc3)c2cc1OC [SrcI1] (first compound 0.08 µM, partner dose 2 µM) | 124%
Nc1cccc2c1CN(C1CCC(=O)NC1=O)C2=O (centres undefined) [lenalidomide] + CC(C)CCN1c2nc(Nc3cc(F)c(O)c(F)c3)ncc2N(C)C(=O)C1C [BID1870] (first compound 1 µM, partner dose 0.2 µM) | 92.4%
C#Cc1cccc(Nc2ncnc3cc(OCCOC)c(OCCOC)cc23)c1 [erlotinib] + Cn1cc(/C=C2\C(=O)Nc3cccnc32)c2ccccc21 [GW441756] (first compound 0.8 µM, partner dose 0.4 µM) | 100%
COCC[n+]1c2c(n(Cc3cnccn3)c1C)C(=O)c1ccccc1C2=O + Cn1cc(/C=C2\C(=O)Nc3cccnc32)c2ccccc21 [GW441756] (first compound 0.0004 µM, partner dose 0.4 µM) | 72.2%
COCC[n+]1c2c(n(Cc3cnccn3)c1C)C(=O)c1ccccc1C2=O + CCCCCCCCCCCC1=C(O)C(=O)C=C(O)C1=O [Embelin] (first compound 0.0004 µM, partner dose 1.2 µM) | 93.9%
O=C(CCCCCCC(=O)Nc1ccccc1)NO [vorinostat] + COc1cc(N2CCC(N3CCN(C)CC3)CC2)ccc1Nc1ncc(Cl)c(Nc2ccccc2S(=O)(=O)C(C)C)n1 [NVP-TAE684] (first compound 0.08 µM, partner dose 0.08 µM) | 107%
Nc1cccc2c1CN(C1CCC(=O)NC1=O)C2=O (centres undefined) [lenalidomide] + O=S(=O)(c1ccccc1)N(CC(F)(F)F)c1ccc(C(O)(C(F)(F)F)C(F)(F)F)cc1 [T0901317] (first compound 1 µM, partner dose 1.4 µM) | 60.4%
Cn1c(Nc2ccc(C(F)(F)F)cc2)nc2cc(Oc3ccnc(-c4ncc(C(F)(F)F)[nH]4)c3)ccc21 + COc1ccc2c(c1)CCC1C2CCC2(C)C(NCCCCCCN3C(=O)C=CC3=O)CCC12 [U73122] (first compound 0.08 µM, partner dose 0.4 µM) | 44.9%
Cn1c(Nc2ccc(C(F)(F)F)cc2)nc2cc(Oc3ccnc(-c4ncc(C(F)(F)F)[nH]4)c3)ccc21 + O=C1NC(=O)/C(=C/c2ccc(-c3ccc(F)cc3O)o2)S1 [AS252424] (first compound 0.08 µM, partner dose 1 µM) | 61.8%
COCC[n+]1c2c(n(Cc3cnccn3)c1C)C(=O)c1ccccc1C2=O + O=c1cc(-c2cccc3c2Sc2ccccc2S3)oc(N2CCOCC2)c1 [KU55933] (first compound 0.0004 µM, partner dose 1 µM) | 78.9%
O=C(CCCCCCC(=O)Nc1ccccc1)NO [vorinostat] + COc1ccc2c(c1)CCC1C2CCC2(C)C(NCCCCCCN3C(=O)C=CC3=O)CCC12 [U73122] (first compound 0.08 µM, partner dose 0.4 µM) | 112%
C#Cc1cccc(Nc2ncnc3cc(OCCOC)c(OCCOC)cc23)c1 [erlotinib] + c1cc(-c2cnn3cc(-c4ccc(OCCN5CCCCC5)cc4)cnc23)ccn1 [Dorsomorphin] (first compound 0.8 µM, partner dose 0.4 µM) | 91.7%
C#Cc1cccc(Nc2ncnc3cc(OCCOC)c(OCCOC)cc23)c1 [erlotinib] + COc1cc2ncnc(Nc3ccc(Oc4ccccc4)cc3)c2cc1OC [SrcI1] (first compound 0.8 µM, partner dose 2 µM) | 96.1%
Nc1cccc2c1CN(C1CCC(=O)NC1=O)C2=O (centres undefined) [lenalidomide] + CCN(CC)CCCCNc1ncc2cc(-c3cc(OC)cc(OC)c3)c(NC(=O)NC(C)(C)C)nc2n1 [PD173074] (first compound 1 µM, partner dose 0.1 µM) | 91.2%
COCC[n+]1c2c(n(Cc3cnccn3)c1C)C(=O)c1ccccc1C2=O + COc1ccc2c(c1)CCC1C2CCC2(C)C(NCCCCCCN3C(=O)C=CC3=O)CCC12 [U73122] (first compound 0.0004 µM, partner dose 0.4 µM) | 96.6%
Cn1c(Nc2ccc(C(F)(F)F)cc2)nc2cc(Oc3ccnc(-c4ncc(C(F)(F)F)[nH]4)c3)ccc21 + O=C(Nc1ccccc1)c1cc([N+](=O)[O-])ccc1Cl [GW9662] (first compound 0.08 µM, partner dose 2 µM) | 66.7%
C#Cc1cccc(Nc2ncnc3cc(OCCOC)c(OCCOC)cc23)c1 [erlotinib] + CC(C)CCN1c2nc(Nc3cc(F)c(O)c(F)c3)ncc2N(C)C(=O)C1C [BID1870] (first compound 0.8 µM, partner dose 0.2 µM) | 89%
Nc1cccc2c1CN(C1CCC(=O)NC1=O)C2=O (centres undefined) [lenalidomide] + O=C(O)C(=O)Nc1sc2c(c1C(=O)O)CCNC2 [TCS401] (first compound 1 µM, partner dose 1.66667 µM) | 117%
C#Cc1cccc(Nc2ncnc3cc(OCCOC)c(OCCOC)cc23)c1 [erlotinib] + COC(=O)c1sccc1S(=O)(=O)Nc1ccc(Nc2ccccc2)cc1OC [GSK0660] (first compound 0.8 µM, partner dose 1 µM) | 90.8%
COCC[n+]1c2c(n(Cc3cnccn3)c1C)C(=O)c1ccccc1C2=O + COC(=O)c1sccc1S(=O)(=O)Nc1ccc(Nc2ccccc2)cc1OC [GSK0660] (first compound 0.0004 µM, partner dose 1 µM) | 77.2%
COCC[n+]1c2c(n(Cc3cnccn3)c1C)C(=O)c1ccccc1C2=O + c1cc(-c2cnn3cc(-c4ccc(OCCN5CCCCC5)cc4)cnc23)ccn1 [Dorsomorphin] (first compound 0.0004 µM, partner dose 0.4 µM) | 73.7%
COCC[n+]1c2c(n(Cc3cnccn3)c1C)C(=O)c1ccccc1C2=O + COc1cc(N2CCC(N3CCN(C)CC3)CC2)ccc1Nc1ncc(Cl)c(Nc2ccccc2S(=O)(=O)C(C)C)n1 [NVP-TAE684] (first compound 0.0004 µM, partner dose 0.08 µM) | 66.8%
Cn1c(Nc2ccc(C(F)(F)F)cc2)nc2cc(Oc3ccnc(-c4ncc(C(F)(F)F)[nH]4)c3)ccc21 + COc1ccc(-c2ccc3c(N4CCOCC4)nc(N4C[C@@H](C)O[C@@H](C)C4)nc3n2)cc1CO [KU0063794] (first compound 0.08 µM, partner dose 0.02 µM) | 76.2%
C#Cc1cccc(Nc2ncnc3cc(OCCOC)c(OCCOC)cc23)c1 [erlotinib] + Oc1cc(-c2nc(-c3ccccc3)[nH]c2-c2ccncc2)ccc1Cl [L779450] (first compound 0.8 µM, partner dose 0.2 µM) | 88.5%
Nc1cccc2c1CN(C1CCC(=O)NC1=O)C2=O (centres undefined) [lenalidomide] + O=C(Nc1ccccc1)c1cc([N+](=O)[O-])ccc1Cl [GW9662] (first compound 1 µM, partner dose 2 µM) | 83.9%
Nc1cccc2c1CN(C1CCC(=O)NC1=O)C2=O (centres undefined) [lenalidomide] + Oc1cc(-c2nc(-c3ccccc3)[nH]c2-c2ccncc2)ccc1Cl [L779450] (first compound 1 µM, partner dose 0.2 µM) | 84.1%
O=C(CCCCCCC(=O)Nc1ccccc1)NO [vorinostat] + Oc1cc(-c2nc(-c3ccccc3)[nH]c2-c2ccncc2)ccc1Cl [L779450] (first compound 0.08 µM, partner dose 0.2 µM) | 115%
